Measured values published in a collection of fitness landscapes (doi:10.1016/j.celrep.2020.107928).
Over roughly 81,000 sequences, “one-hybrid fitness for binding NBS DNA” has its median near -0.1; the highest 2% begin near 0.36. The list shows a part of the results.

B1: Caulobacter ParB omega fusion; a variant is named by its letters at X, in order, B8GW30 (parent)
chain: MESVVVGEPGMSEGRRGLGRGLSALLGEVDAAPAQAPGEQLGGSREAPIEILQRNPDQPRRTFREEDLEDLSNSIREKGVLQPILVRPSPDTAGEYQIVAGERAWRAAQRAGLKTVPIMVRELDDLAVLEIGIIENVQRADLNVLEEALSYKVLMEKFERTQENIAQTIGKSXSHVANXMRLLXLPDEVQSYLVSGELTAXHARAIAAAADPVALAKQIIEGGLSVRETEALARKAPNLSAGKSKGGRPPRVKDTDTQALESDLSSVLGLDVSIDHRGSTGTLTITYATLEQLDDLCNRLTRGI

Variants of: B1
Test: one-hybrid fitness for binding NBS DNA (the Noc-binding site; scaled: cognate 1, non-cognate 0); higher = stronger binding
Conditions: with NBS DNA site
Procedure, shortened: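 On M9-minus-histidine containing 0.1 mM IPTG and 5 mM 3-AT, E. coli USO cells with a HIS3 reporter, site 19 bp from the promoter, grew 48 hours at 37°C to select Caulobacter ParB libraries randomised at four specificity codons. Plasmids from before and after were Illumina-sequenced, with three replicate libraries pooled and variants under 10 reads left out. Fitness is the log change in variant-to-wild-type read ratio, rescaled against cognate and non-cognate.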

one-hybrid fitness for binding NBS DNA, 0.438:
QRHM

one-hybrid fitness for binding NBS DNA, ≤ 0.2:
ITTT
NMHR
DLPK
EASS
MCMY
ASEF
VPGF
KHTC
MRPA
ELNS
KAPE
KITC
DVER
QGWN
MECS
AANW
CSIN
VITL
QKVW
YWKC
CHDR
QCAM
KAYR
WTPT
HNNC
RFWV
GEKT
TNDW
LVIM
FCAG
SESR
FIWG
MDHY
LYMH
QSTV
MIKI
LERV
VRPC
LRHS
NTVH
RVPE
ICFR
RYPE
GDHG
IWRM
LKII
SIHG
RFVQ
PPPT
MLNR
RNNK
KKRG
RDSQ
IQTG
YRLR
VDRI
CHDG
WWQS
LITM
EAHN
HDPC
NTVW
MLIR
NATT
MRIW
YGVC
FSRR
AVPK
QYMA
KGMW
QSDL
RGGW
TTKS
MNLW
APRV
IFTT
LDMI
WPKS
HFGI
SMRA
QTWV
PLGR
EKTR
GMEG
RWLG
YYLT
CIAR
ASQW
DERY
SFEG
SLNQ
GKTR
PGMV
YGYV
YNNI
VYRM
SDDS
FPVR
TSMS
KGGW
PMQG
AWNN
INIG
FILL
KSMG
QVPE
QGGG
RSHD
WRHM
RKQP
WPMS
SNLM
IGHI
RMQV
EPTC
RPQC
VRYG
KRAY
SKAR
LHHT
PYDY
DNSY
RSWM
WCLS
VLSW
VEWF
LSPY
PSTC
VTNR
QVME
DTGM
TAMG
TVFV
KKHS
TARK
QWFR
PVPE
HKLF
EMTS
LVCL
VPGI
VLNR
VFAC
CMNE
VTHR
GMLV
RACQ
QELE
YMPY
HPPV
RQLF

one-hybrid fitness for binding NBS DNA, 0.268:
RQDT
